# According to publication PMC4336329 (PLoS ONE, 2015):
# About 14,000 (4.5%) of roughly 310,000 compounds showed an effect of 50% or more. Effects have a minus sign here. This is one part of the list.
# Target: human ether-à-go-go-related gene (hERG) potassium channel (human, UniProt Q12809)
# Assay: primary screen, population patch clamp on CHO cells stably expressing hERG
# 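Note: peak tail current of the secondary pulse compared with the same well before compound.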
# human ether-à-go-go-related gene (hERG) potassium channel, sequence (Q12809 whole entry, looked up): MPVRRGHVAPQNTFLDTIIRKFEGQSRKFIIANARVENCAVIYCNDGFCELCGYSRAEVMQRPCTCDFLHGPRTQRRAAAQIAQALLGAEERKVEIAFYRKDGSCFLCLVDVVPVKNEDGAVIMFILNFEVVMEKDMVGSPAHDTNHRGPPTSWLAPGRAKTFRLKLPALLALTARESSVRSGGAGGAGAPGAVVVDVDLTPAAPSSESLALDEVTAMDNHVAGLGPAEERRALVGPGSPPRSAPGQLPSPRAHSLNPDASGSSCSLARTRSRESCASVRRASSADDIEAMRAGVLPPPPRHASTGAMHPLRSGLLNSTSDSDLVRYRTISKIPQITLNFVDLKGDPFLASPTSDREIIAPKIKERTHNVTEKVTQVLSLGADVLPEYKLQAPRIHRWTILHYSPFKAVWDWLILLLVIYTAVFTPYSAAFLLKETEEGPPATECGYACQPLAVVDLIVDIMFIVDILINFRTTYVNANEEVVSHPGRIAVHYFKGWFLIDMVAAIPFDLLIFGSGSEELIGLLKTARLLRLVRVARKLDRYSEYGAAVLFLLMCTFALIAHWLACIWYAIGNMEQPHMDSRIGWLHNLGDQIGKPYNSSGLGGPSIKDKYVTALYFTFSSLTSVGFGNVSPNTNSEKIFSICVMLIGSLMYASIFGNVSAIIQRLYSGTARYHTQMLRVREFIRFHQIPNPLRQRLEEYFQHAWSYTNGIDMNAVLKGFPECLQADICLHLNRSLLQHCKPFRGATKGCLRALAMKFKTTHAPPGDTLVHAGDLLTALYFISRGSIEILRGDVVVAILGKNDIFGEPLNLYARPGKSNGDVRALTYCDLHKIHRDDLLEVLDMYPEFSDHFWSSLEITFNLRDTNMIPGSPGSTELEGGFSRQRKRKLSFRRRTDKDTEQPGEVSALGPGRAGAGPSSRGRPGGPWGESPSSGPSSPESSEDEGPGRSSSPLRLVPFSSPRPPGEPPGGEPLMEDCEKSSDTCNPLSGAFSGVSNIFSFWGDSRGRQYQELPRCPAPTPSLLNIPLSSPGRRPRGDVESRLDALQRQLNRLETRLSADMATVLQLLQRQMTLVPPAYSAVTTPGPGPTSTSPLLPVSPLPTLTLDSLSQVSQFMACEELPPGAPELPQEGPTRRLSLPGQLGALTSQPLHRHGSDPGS
row,SMILES,"hERG current change (%, negative = inhibition) at 10uM [%]"
1,CCOC(=O)N1CCN(C(=O)CSc2nnc(-c3cc(OC)cc(OC)c3)o2)CC1,-6.16
2,CCc1ccccc1SCc1noc(C(=O)NCC2CCCO2)c1C(=O)O (stereo not shown),2.36
3,CC(O)c1ccc(-n2cnnn2)cc1 (stereo not shown),20
4,C=CCNC(=O)C1CC2Cn3c(nc4ccccc43)C2N1C (stereo not shown),8.22
5,CC1(C)Oc2ccc(C(=O)NC3CCCCC3)cc2N(CC#N)C1=O,10.6
6,OCC[C@@H]1C[C@@H](O)[C@H](O)[C@@]2(Cc3ccccc3O2)O1,9.59
7,Cc1onc(-c2ccccc2)c1C(=O)NCc1cccnc1,10.8
8,CSc1nc2[nH]ncc2c(=O)n1-c1ccccc1,23.6
9,Cc1cc(C)c(C#N)c(SCc2[nH]nc3c2C(c2ccc(F)cc2)C(C#N)=C(N)O3)n1 (stereo not shown),4.76
10,O=C(c1ccccc1)N1CCN(c2ccc([N+](=O)[O-])c(NCc3cccnc3)c2)CC1,-69.7
11,COc1ccc(-c2nnc(SCC(=O)Nc3cc(S(=O)(=O)N4CCCCC4)ccc3Cl)n2N)cc1,-34
12,CN1Cc2c(N3CCOCC3)nc(SCCC#N)c(C#N)c2CC1(C)C,-2.45
13,Cc1[nH]n2c(=O)c3c(nc2c1-c1ccc(Cl)cc1)CCC3,6.72
14,Cl.NCCOc1ccccc1-c1ccccc1,-11.1
15,COc1ccc2oc(C(=O)OC(C)C(=O)N3CCC(C)CC3)c(C)c2c1 (stereo not shown),-5.44
16,Cc1cccc(N2CC(C(=O)O)CC2=O)c1C (stereo not shown),12.9
17,Cc1cc(OCC(F)(F)C(F)(F)C(F)(F)C(F)(F)C(F)(F)C(F)F)nc(N)n1,8.6
18,CCCNC(=O)NC(=O)CSc1ccc(C)cc1C,13.4
19,CCOC(=O)/C(=N/Nc1ccccc1)Sc1nnc(CCc2ccccc2)n1-c1ccccc1,4.71
20,CCCn1nnc(NC(=O)/C=C/c2ccc(C(C)C)cc2)n1,0.724
21,COc1ccc(C=O)cc1Cn1c(=O)n(CCC(=O)NCc2ccco2)c(=O)c2sccc21,-2.3
22,O=C(Nc1ccc(Br)cc1)c1cc(S(=O)(=O)Nc2ccccn2)ccc1Cl,15.3

row,SMILES,"hERG current change (%, negative = inhibition) at 10uM [%]"
1,CCCn1c(/N=C/c2c[nH]c3ccccc23)nc2ccccc21,-6.18
2,O=C(O)CCc1nn2c3ccccc3n(CC(=O)O)c2nc1=O,1.48
3,COc1ccc(-n2c(=O)c3ccccc3n(CC(=O)NC3CCCC3)c2=O)cc1,10.7
4,CNC(=S)N(CCc1cccc(C)c1)Cc1cc2cc(OC)c(OC)cc2[nH]c1=O,-16.7
5,C=CCN1C(=O)c2ccc(C(=O)N(C)CC(=O)Nc3c(C)cccc3C)cc2C1=O,15.4
6,CC(C)c1ccc(/C=N/n2c(COc3ccccc3)n[nH]c2=S)cc1,11.7
7,O=C1C2CCCN2c2ccc(S(=O)(=O)N3CCOCC3)cc2N1Cc1cccc(C(F)(F)F)c1 (stereo not shown),7.28
8,CC(C(=O)Nc1ccc2[nH]c(=O)[nH]c2c1)N1CCN(Cc2ccc3c(c2)OCO3)CC1 (stereo not shown),-8.35
9,COc1ccccc1NC(=O)COC(=O)Cc1c[nH]c2ccccc12,-2.78
10,CCN(CC(=O)NCc1cccs1)C(=O)c1ccc(S(=O)(=O)Nc2ccccc2)cc1,-15.6
11,CCOC(=O)C(CC)/C(C)=N\NC(=O)c1cccc(C)c1 (stereo not shown),35.5
12,CC(C)n1c(SCC(=O)Nc2ccc3c(c2)OCO3)nc2c1c(=O)n(C)c(=O)n2C,1.22
13,Cc1ccc(-c2nc3ccccc3s2)cc1NC(=O)c1ccc2c(c1)OCO2,14.5
14,O=C1C(Cl)=C(N2CCOCC2)C(=O)N1c1cccc(C(F)(F)F)c1,17.3
15,CCOc1ncccc1C(=O)Nc1cc(S(=O)(=O)N2CCCCC2)ccc1C,4.21
16,COc1ccc(CN2C(=O)c3oc4ccccc4c(=O)c3C2c2ccc(O)c(OC)c2)cc1 (stereo not shown),4.88
17,COC(=O)c1c(C)[nH]c(/C=N/Nc2ccccc2)c1C,6.93
18,CC1CC1C(=O)N1CCN(S(=O)(=O)c2cccc(F)c2)CC1 (stereo not shown),17.3
19,Cc1ccc(C(=O)O)cc1Nc1ncnc2sc3c(c12)CCC3,8.51
20,Cc1ccccc1N(C(=O)c1snc(C(N)=O)c1N)C(C(=O)NCc1ccccc1)c1ccc(O)cc1 (stereo not shown),19.5
21,CCc1ccc2c(c1)C(=O)c1ccccc1C2=O,14
22,Cc1cccc(CSc2nnc([C@@H]3CCCN3C(=O)OC(C)(C)C)o2)c1,4.85

row,SMILES,"hERG current change (%, negative = inhibition) at 10uM [%]"
1,Cc1nn(-c2ccccc2)c(N2CCCC2)c1/C=N/NC(=O)c1cc(-c2cccnc2)nc2ccccc12,-12.2
2,CC(C)CNC(=O)c1cc2nc3c(c(C(F)(F)F)n2n1)CCc1ccccc1-3,3.29
3,CCN(CC)c1ncc(C)c(=O)[nH]1,10.1
4,CN(CCC#N)C(=O)c1cc2c(s1)-c1ccccc1SC2,-8.88
5,Cc1[nH]cnc1C(=O)N/N=C/c1ccc([N+](=O)[O-])s1,5.2
6,CCCn1nnc2sc3c(c2c1=O)CCC(C)C3 (stereo not shown),-6.6
7,O=c1cc(-c2ccc(O)cc2)oc2cc(O[C@@H]3O[C@H](CO)[C@@H](O)[C@H](O)[C@H]3O[C@@H]3OC[C@](O)(CO)[C@H]3O)cc(O)c12,12.5
8,COc1ccc(C(=O)CC(SCC(NC(C)=O)C(=O)O)c2ccc(Cl)cc2)cc1OC (stereo not shown),7.24
9,O=C(Nc1ccccc1Cl)c1ccc(-c2ccccn2)s1,1.03
10,CC(C)N(C(=O)Cn1cc(SCC(=O)NCc2ccco2)c2ccccc21)C(C)C,-23
11,CCS(=O)(=O)N1CCCC(C(=O)NCCc2ccc(C)cc2)C1 (stereo not shown),-4.48
12,CCN1CCCC1CNC(=O)c1cc(COc2ccc(C)c(C)c2)on1 (stereo not shown),-65.2
13,Cc1ccc(S(=O)(=O)CCC(=O)OCC(=O)N2CCN(c3ccccc3)CC2)cc1,-18.1
14,O=S(=O)(c1cccc(-c2cn3cc(Cl)ccc3n2)c1)N1CCOCC1,-23.1
15,C[C@H](NC(=O)CCC(=O)N1C[C@H]2C[C@H](C1)c1cccc(=O)n1C2)c1ccccc1,2.4
16,CC(C)(C)NC(=O)CSc1ncccc1-c1nc2ccccc2[nH]1,-4.73
17,COCC(=O)Oc1c(S(=O)(=O)c2ccccc2)c(C)nn1C(C)(C)C,16.6
18,Cc1cc(C(=O)CN2C(=O)NC3(CCCCC3)C2=O)c(C)n1C,-10.3
19,COc1ccc(CN(C)C(=O)c2ccc3c(=O)n4c(nc3c2)CCC4)c(OC)c1,9.18
20,CCCS(=O)(=O)N1CCC(C(=O)NCCN(C)Cc2ccccc2)CC1,0.0818
21,Cl.Nc1nc2nc(SCC(=O)N3CCCc4ccccc43)[nH]c2c(=O)[nH]1,8.64
22,Nc1nc(SCc2ccccc2)ns1,3.95

row,SMILES,"hERG current change (%, negative = inhibition) at 10uM [%]"
1,Cc1nn(CC(=O)NCc2ccco2)c(C)c1[N+](=O)[O-],9.92
2,COc1ccc(N=CC2=C(O)CC(C)(C)CC2=O)cc1,7.47
3,Cc1ccc(C(=O)NCc2nnc(SCC(=O)Nc3sc4c(c3C#N)CCCC4)n2C)cc1,-8.88
4,CCC(Sc1ccccn1)C(=O)Nc1cccc([N+](=O)[O-])c1 (stereo not shown),-38.7
5,CC(=O)n1cc([C@H]2C=C(C(=O)N3CCN(Cc4ccccc4)CC3)O[C@@H](OCCCCO)C2)c2ccccc21,-42.5
6,CCCn1c(=S)[nH]c2ccccc2c1=O,5.51
7,Nc1c(N(Cc2ccco2)C(=O)c2cccc(F)c2)c(=O)[nH]c(=O)n1Cc1ccccc1,5.17
8,Cc1ccc(C(C)C)c(OCC(=O)Nc2ccc3c(c2)nc(CCN2CCCCC2)n3C)c1,-75.8
9,O=C(NC1CCCC1)C(c1cccs1)N(Cc1ccco1)C(=O)Cn1nnc(-c2cccs2)n1 (stereo not shown),2.45
10,N#Cc1cccc(CN2CCC(=O)N([C@H](CO)Cc3ccccc3)CC2)c1,-10
11,COc1ccc(C(=O)N/N=C/c2sc(=O)n(Cc3cccc(C(=O)O)c3)c2Cl)cc1,-1.9
12,CCOc1ccccc1CN1CCNC(=O)C1CC(=O)NCCc1ccccn1 (stereo not shown),1.42
13,COC(=O)[C@H](Cc1ccccc1)NC(=O)NCCc1ccccc1F,6.33
14,COCCCN1C(=O)C(O)=C(C(=O)c2ccco2)C1c1cccc(Br)c1 (stereo not shown),2.9
15,O=C1OC(/C(=C\Nc2ccc(F)cc2F)[N+](=O)[O-])c2ccccc21 (stereo not shown),14
16,CCSC1=C(C#N)C(c2ccccc2Cl)C(C(=O)c2cccs2)C(O)(C(F)(F)F)N1 (stereo not shown),8.8
17,COc1cccc(C(=O)Oc2c(CN3CCOCC3)cc(Cl)c3cccnc23)c1,-39
18,COc1ccc(CCNc2cc(C)nc3c(-c4ccc(Cl)cc4)c(C)nn23)cc1OC,15.5
19,CCc1ccc(NC(=O)c2cnn(-c3ccccc3)c2C)cc1,2.7
